# Assay results published in PubChem BioAssay AID1645887 (National Center for Advancing Translational Sciences (NCATS), 2021).
# Several values for one entry are separate records, joined by “and”; a condition that tells them apart may be missing. Equal entries are not always repeated. In all, about 16,000 compounds went through this assay and about 40 (0.2%) were called active. Inconclusive results (about 1%) are left out. Calls come from the whole dose curve; as a rule, active = well fitted activation curve with a large enough effect; inconclusive = small, poorly fitted or top-dose-only effect, or another doubt; inactive = no such curve, though single readings can be large or run the other way. This is one part of the list. Residues, ends and D or L forms follow the SMILES beside them.
# Target: Rap guanine nucleotide exchange factor 4 (Homo sapiens) (UniProt Q8WZA2)
# Assay: Validation qHTS for agonist of cAMP-regulated guanine nucleotide exchange factor 4 (EPAC2);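 note: exchange makes BODIPY-GDP fluorescence drop when released from Rap1B; series mostly up to about 150 µM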
# Conditions: EPAC2 Rap1B BODIPY-GDP exchange, fluorescence; activation: hits give high values
# Outline: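 Signal normalized against 6.5 mM cAMP as agonist control. Mix of EPAC2 (100 nM), RAP1B-BODIPY-GDP (250 nM) and GDP (50 uM) was read kinetically at 480/540 nm, every 5 min over 30 min, after 5 min room-temperature incubation with compound.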
# % is set by controls: 0 for no effect and ±100 for the full control effect.
# UniProt Q8WZA2, sequence (Q8WZA2 whole entry, looked up): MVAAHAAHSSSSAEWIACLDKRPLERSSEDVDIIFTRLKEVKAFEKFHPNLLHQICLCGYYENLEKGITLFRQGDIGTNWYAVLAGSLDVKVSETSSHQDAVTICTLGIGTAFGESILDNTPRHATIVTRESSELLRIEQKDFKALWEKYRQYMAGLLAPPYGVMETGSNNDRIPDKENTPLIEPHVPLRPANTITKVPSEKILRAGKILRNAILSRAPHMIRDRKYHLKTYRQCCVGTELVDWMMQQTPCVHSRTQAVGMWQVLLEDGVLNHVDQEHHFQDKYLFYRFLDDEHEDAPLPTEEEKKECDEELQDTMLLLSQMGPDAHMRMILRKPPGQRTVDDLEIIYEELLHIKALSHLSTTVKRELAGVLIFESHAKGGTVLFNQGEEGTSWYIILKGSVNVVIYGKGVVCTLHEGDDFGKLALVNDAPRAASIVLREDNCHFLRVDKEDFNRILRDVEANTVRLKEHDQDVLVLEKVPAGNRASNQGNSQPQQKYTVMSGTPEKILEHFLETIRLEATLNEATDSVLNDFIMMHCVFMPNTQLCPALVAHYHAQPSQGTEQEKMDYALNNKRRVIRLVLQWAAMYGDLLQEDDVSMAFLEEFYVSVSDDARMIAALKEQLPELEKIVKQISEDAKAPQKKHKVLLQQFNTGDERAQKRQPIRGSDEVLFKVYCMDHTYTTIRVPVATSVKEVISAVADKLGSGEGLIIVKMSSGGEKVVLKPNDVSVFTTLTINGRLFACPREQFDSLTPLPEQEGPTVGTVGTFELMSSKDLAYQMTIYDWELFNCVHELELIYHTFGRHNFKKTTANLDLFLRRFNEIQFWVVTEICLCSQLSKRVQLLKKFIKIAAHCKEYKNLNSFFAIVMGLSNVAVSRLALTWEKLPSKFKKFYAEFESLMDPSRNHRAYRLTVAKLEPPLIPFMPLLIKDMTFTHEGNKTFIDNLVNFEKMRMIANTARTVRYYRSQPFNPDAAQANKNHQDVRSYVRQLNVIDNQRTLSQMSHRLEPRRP
row,Structure (SMILES),activation
1,OCC1OC(n2cnc3cc(Cl)c(Cl)cc32)C(O)C1O (stereo not drawn),inactive: -4.14%
2,N#Cc1ccc(CN2CC3(CCNCC3)C2)cc1,inactive: 2.52%
3,NCC(CS(=O)(=O)O)c1ccc(Cl)cc1 (stereo not drawn),inactive: -16.3%
4,CN1C(=O)CCS(=O)(=O)[C@H]1c1ccc(Cl)cc1,inactive: -29.8%
5,C=CCN1CCc2cccc3c2C1Cc1ccc(O)c(O)c1-3 (stereo not drawn),inactive: -15.3%
6,CC[C@@H](CO)NC(=O)[C@H]1C=C2c3cccc4[nH]cc(c34)C[C@H]2N(C)C1,inactive: -7.17%
7,COc1ccc(OC)c(CC(C)N)c1 (stereo not drawn),inactive: -18.3%
8,CC(C(=O)OC1CC2CCC(C1)N2C)c1ccc(Br)cc1 (stereo not drawn),inactive: 13.4%
9,O=C1CCCC2C3CC(CN12)C1CCCCN1C3 (stereo not drawn),inactive: -7.65%
10,N[C@H](C(=O)O)c1cc(=O)[nH]o1,inactive: -2.75%
11,CCCCCl,inactive: -5.57%
12,COC(=O)[C@]1(C)CC[C@@]2(C)CC[C@@]3(C)C4=CCc5c(cc(O)c(O)c5C)[C@]4(C)CC[C@@]3(C)C2C1 (stereo partly drawn),inactive: -18.2%
13,CN1C(=S)CN=C(c2ccccc2)c2cc(Cl)ccc21,inactive: -15%
14,NC(=O)[C@@H]1CCCN1C(=O)[C@H](Cc1ccccc1)NC(=O)[C@@H]1CCCN1C(=O)[C@@H](N)Cc1ccc(O)cc1 (H-YPFP-NH2),inactive: -4.2%
15,COc1ccc(C(=O)N2CCCC2=O)cc1,inactive: -4.66% [middle of 4 runs]
16,CC(N)[C@H](O)c1ccccc1 (stereo partly drawn),inactive: -19.1%
17,C=CCN1CCc2cccc3c2[C@H]1Cc1ccc(O)c(O)c1-3,inactive: -25.2%
18,Cc1[nH]c2ccc(O)cc2c1CCN,inactive: -12.9% and inactive: 8.11% and inactive: 5.84%
19,COc1nc(NC(C)C)nc(NC(C)C)n1,inactive: 2.3%
20,O=C(c1ccncc1)N1CCC[C@@]2(CCN(Cc3nccs3)C2)C1,inactive: -16.1%
21,CCCN(CCC)C1CCc2cccc(O)c2C1 (stereo not drawn),inactive: 9.07% and inactive: -0.579%
22,O=C(Nc1ccccc1)N1CC2(CCN(C(=O)Oc3ccccc3)CC2)C1,inactive: -17.2%

row,Structure (SMILES),activation
1,c1cc(CN2CC3(CCNCC3)C2)ccn1,inactive: -20.8%
2,O=c1oc2ccccc2c(O)c1Cc1c(O)c2ccccc2oc1=O,inactive: -1.4% and inactive: -2.53%
3,OCCN(CCO)CCO,inactive: -9.71%
4,C[C@]12CC[C@H](O)CC1=CCC1C2CC[C@]2(C)C(=O)CC[C@@H]12 (stereo partly drawn),inactive: -11.3%
5,c1cncc(C2=NCCC2)c1,inactive: -2.71%
6,Cc1ccc(C[N+](C)(C)C)o1,inactive: -5.41% and inactive: -0.486% and inactive: 3.14%
7,CC1(C)C(O)CC(O)[C@]2(C)C1CC(O)[C@]1(C)C2CC[C@@]2(C)C(c3ccoc3)OC(=O)C3O[C@]312 (stereo partly drawn),inactive: -8.15%
8,CC(C)(Cc1c[nH]c2ccc(Cl)cc12)NCCOc1ccccc1OCC1CC1,inactive: -23.8% and inactive: -11.4%
9,CCCCC/C=C\C=C\[C@H](CCCCCCCC(=O)O)OO,inactive: 3.34%
10,C[C@]12C=CC(=O)C=C1CC[C@@H]1[C@@H]2CC[C@]2(C)OC(=O)CC[C@@H]12,inactive: -9.73%
11,CCCCCCCCc1ccc(O)cc1,inactive: -63.2%
12,C[C@]12CC[C@@H]3c4ccc(OC(=O)N(CCCl)CCCl)cc4CC[C@H]3[C@@H]1CC[C@@H]2O,inactive: -23.5%
13,CCCN1CCc2cccc3c2[C@H]1Cc1ccc(O)c(O)c1-3,inactive: -21.7%
14,NC(N)=NOCCC(N)C(=O)O (stereo not drawn),inactive: 4.02% and inactive: -3.43%
15,CN1C2CCC1CC(C(=O)OC(CO)c1ccccc1)C2 (stereo not drawn),inactive: -8.73%
16,CC1N=C(N)OC1c1ccccc1 (stereo not drawn),inactive: -0.752%
17,Cc1nccc2c1[nH]c1ccccc12,inactive: -5.94% [middle of 4 runs]
18,CCOC(=O)c1ncn2c1[C@H]1CCCN1C(=O)c1cc(OC)ccc1-2,inactive: -17.9%
19,CN1CC[C@@]2(C)c3cc(O)ccc3N(C)C12 (stereo partly drawn),inactive: -29.8%
20,C[N+]1(C)CCCCC1COC(=O)C(O)(c1ccccc1)c1ccccc1 (stereo not drawn),inactive: 8.98%
21,CC(=O)CC1CCCCN1 (stereo not drawn),inactive: -7.98%
